# Whole data set: some 33,000 sequences, median “E-score (-0.5 to 0.5)” near -0.016, cut for the highest 2% near 0.32. This is one part of the list.
# Target: T1, Stp1 (UniProt B3LFK1)
# T1 sequence: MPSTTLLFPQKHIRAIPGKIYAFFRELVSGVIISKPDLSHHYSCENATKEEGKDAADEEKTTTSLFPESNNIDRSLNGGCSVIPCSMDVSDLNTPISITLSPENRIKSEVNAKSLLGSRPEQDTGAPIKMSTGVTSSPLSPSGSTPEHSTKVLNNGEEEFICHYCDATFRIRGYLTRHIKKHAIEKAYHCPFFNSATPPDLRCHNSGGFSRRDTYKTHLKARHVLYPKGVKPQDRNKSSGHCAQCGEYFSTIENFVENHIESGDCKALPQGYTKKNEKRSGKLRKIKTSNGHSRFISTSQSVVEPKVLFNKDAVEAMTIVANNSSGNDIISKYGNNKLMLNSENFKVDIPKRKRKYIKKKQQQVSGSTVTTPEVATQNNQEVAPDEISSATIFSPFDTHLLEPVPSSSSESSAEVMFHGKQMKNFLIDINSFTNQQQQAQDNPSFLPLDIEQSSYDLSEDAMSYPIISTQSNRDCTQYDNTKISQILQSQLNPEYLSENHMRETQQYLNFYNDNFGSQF
# Test: PBM E-score (8-mer binding enrichment) (E-score (-0.5 to 0.5)); higher = stronger / more preferred TF binding; most listed sequences are background and not binding sites
# Conditions: protein concentration: 200 nM; construct: GST-full length
# Outline: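 Yeast transcription factors carrying a GST tag, as full-length proteins or DNA-binding domains, were produced by PURExpress in vitro transcription/translation. About 100-200 nM protein was applied to universal all-10-mer Agilent arrays, double-stranded by primer extension on fresh or once-stripped slides. Bound protein was detected with fluorescent anti-GST, and scans were normalised with masliner. The Universal PBM Analysis Suite gave each ungapped eight-base word, pooled with its reverse complement, an E-score, a modified Wilcoxon-Mann-Whitney statistic.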
row,Sequence,PBM E-score
1,CACCCGCC,0.0898
2,ATAGTATG,-0.0217
3,ATAACCTC,0.0784
4,CAGTGTAG,0.0536
5,ACTTACGA,0.195
6,AGGGTGGA,-0.18
7,GACGAGTA,-0.0493
8,AGAGTTAT,-0.187
9,GACACAGC,-0.0567
10,CCCCCGCC,-0.262
11,GTGCCCAC,-0.00488
12,CCAAGTAA,0.18
13,CTTTTAGA,0.0884
14,AACACCCC,-0.129
15,AAACCGGA,0.019
16,AACCTTTA,-0.0416
17,CCGTCCTC,-0.0869
18,CTTACGGC,0.301
19,CTGGCGCA,-0.0136
20,GCTTTGCA,-0.22
21,AGAACGAG,-0.0161
22,TCCAGGCA,0.0486
23,CGATGTCA,-0.158
24,ACGTCTCT,-0.0532
25,AACGCTAG,-0.086

row,Sequence,PBM E-score
1,CCATCATC,-0.139
2,AAATATCT,0.0537
3,CAGCATGA,-0.212
4,ACCGGGTA,-0.0938
5,GTCCCGAA,-0.215
6,AAGACACA,-0.0162
7,CTAGGCTC,-0.0833
8,ACCGCGTG,0.0896
9,CGTCCAAC,-0.0455
10,GCTCACAA,0.21
11,ATATATAT,0.303
12,ATATCAAC,0.143
13,CTTTTCTC,0.0401
14,ACTCTAGC,-0.125
15,CTGTGTCC,-0.0348
16,AATCATAC,0.00023
17,AACACGCT,-0.0712
18,ACCGTCTA,-0.0765
19,AAAGTCGA,-0.15
20,GAGCACGC,-0.169
21,CTCTGATA,-0.0258
22,CGCGCAGC,0.0787
23,CCTATTCG,-0.133
24,TAGCCCTA,-0.0402
25,AAGATCAG,-0.0311

row,Sequence,PBM E-score
1,ACTCGGTA,-0.189
2,GGCTCTCA,0.0688
3,CATACTTA,-0.00908
4,AGTGATTA,0.249
5,AATCTGAC,0.0257
6,CCCTCCGA,-0.355
7,CCTGGTCC,-0.268
8,TAATGAGA,-0.0848
9,CAAGTCTA,-0.124
10,TAGGGCGA,0.178
11,ATCCCCAA,-0.0812
12,CGACTATC,0.00023
13,ATAGAAAT,0.197
14,GGATTGCA,-0.0528
15,AAAGGTGA,-0.0774
16,CGCGGTTA,0.0151
17,ACGTTTTG,-0.073
18,GTCTAAAA,-0.0262
19,CCGGTGAG,-0.166
20,GGCGAGCA,-0.111
21,AGAGAATC,-0.0607
22,CGAACACA,0.0328
23,CCGATCGC,-0.16
24,TCATCGAA,0.0188
25,AGTATGAT,0.0518

row,Sequence,PBM E-score
1,GGGAGATA,-0.214
2,CGCGTTAA,0.0157
3,CGGCGACG,0.349
4,CCTATCCG,-0.149
5,AATCGTGA,-0.108
6,CAGGCAGG,-0.244
7,GCCCGCGC,0.164
8,AATCGTCA,0.0612
9,CACCCCTG,-0.289
10,ACCGTAGG,-0.209
11,GCTAATAA,-0.0966
12,AGAAAAGG,0.00586
13,ATAAACGG,0.305
14,TACATACA,0.0836
15,GATGATAC,0.0227
16,CAATCGGA,-0.0497
17,CACGTCGG,-0.0436
18,AGTGTCGG,-0.176
19,CCTGTACG,-0.026
20,TTACCAAA,0.16
21,AGTGGTTC,-0.0543
22,GATGAGGC,0.177
23,ATAAAAGC,0.136
24,CACGCCAA,0.126
25,ACGTCAGT,-0.171

row,Sequence,PBM E-score
1,GACGTATA,-0.0569
2,GTCGTAAC,-0.0896
3,AGCCCTTA,-0.283
4,ACCGATAA,0.0159
5,CCAGCAGC,-0.12
6,AGGGTCAA,-0.135
7,GGTAATAC,0.0176
8,ATAAGTTA,0.151
9,GCCTCTAC,-0.209
10,GAAGCGCA,-0.0259
11,CCGAGAAA,0.152
12,ATGCTGCC,0.123
13,ATACTAAG,-0.0044
14,CCTTGCCA,0.114
15,GAATTCCC,-0.184
16,AGCTCTAC,-0.1
17,ACTAGCAG,-0.0753
18,CTGTAGTC,-0.175
19,CGAATCAA,0.21
20,CGCGTGCA,0.0968
21,CAACCATA,0.0787
22,CTCAGTCC,-0.195
23,ATGCATAG,-0.138
24,CGCTAAGA,-0.108
25,CAGCTATA,-0.0903

row,Sequence,PBM E-score
1,GCGTAAGC,0.0483
2,CCGTGTAG,0.282
3,GATGAGCC,-0.00449
4,GGATTCCA,0.143
5,CACGGGTC,0.157
6,CGCCCCTC,0.0824
7,ATCACATA,0.151
8,CACCATGA,0.00358
9,CAGATCTA,-0.207
10,GACGGTAC,-0.0457
11,ACAACGTC,-0.0284
12,ATGCAACG,0.0583
13,AGGTATGA,-0.0385
14,ATGATAAC,0.044
15,GGCTTCCA,-0.00202
16,CATCGCAG,-0.143
17,GCCGTCCA,0.364
18,AGACGCTG,-0.186
19,GGGTGTTA,-0.0258
20,CCGCTTTA,0.0741
21,GCCCGAAA,-0.0481
22,ATAGATTA,0.161
23,AATTGCTC,-0.187
24,ACTGATCA,0.0926
25,ATGACCGC,-0.075

row,Sequence,PBM E-score
1,CTTTCCGA,0.0265
2,CGCGAACA,0.0373
3,AATGCTCA,-0.0944
4,CTCCCTAA,-0.142
5,AGCGAAGG,0.0368
6,CCGTTATC,-0.0183
7,ATCGGTGA,0.0718
8,CACATTCG,0.14
9,AGTCCACG,0.00627
10,ATTACCGA,-0.0698
11,AGATTATC,0.0843
12,AAATGATG,-0.034
13,AACGACAA,0.18
14,GACGGAGC,-0.11
15,ACAATCAA,0.187
16,CCCTAGCG,-0.267
17,CAACAGAC,0.0307
18,TGACGGCA,0.175
19,AATGTACT,0.0843
20,CTAGTCCC,-0.32
21,CAGAAAAC,0.138
22,ACGGCTCG,0.444
